# Assay results as given in PubChem BioAssay AID488969 (Vanderbilt High Throughput Screening Facility, 2010).
# In all, about 110,000 compounds were measured (“z-score”: median about -0.1, highest 2% from about 2 on). The list shows a part of the results. Activity calls are given as the source filed them.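 Rule for the calls: active = z-score in the third read window above 3 or below -3; inactive = the rest.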
# Molecular target: Metabotropic glutamate receptor 8 (Rattus norvegicus) (UniProt P70579)
# UniProt P70579, sequence (P70579 whole entry, looked up): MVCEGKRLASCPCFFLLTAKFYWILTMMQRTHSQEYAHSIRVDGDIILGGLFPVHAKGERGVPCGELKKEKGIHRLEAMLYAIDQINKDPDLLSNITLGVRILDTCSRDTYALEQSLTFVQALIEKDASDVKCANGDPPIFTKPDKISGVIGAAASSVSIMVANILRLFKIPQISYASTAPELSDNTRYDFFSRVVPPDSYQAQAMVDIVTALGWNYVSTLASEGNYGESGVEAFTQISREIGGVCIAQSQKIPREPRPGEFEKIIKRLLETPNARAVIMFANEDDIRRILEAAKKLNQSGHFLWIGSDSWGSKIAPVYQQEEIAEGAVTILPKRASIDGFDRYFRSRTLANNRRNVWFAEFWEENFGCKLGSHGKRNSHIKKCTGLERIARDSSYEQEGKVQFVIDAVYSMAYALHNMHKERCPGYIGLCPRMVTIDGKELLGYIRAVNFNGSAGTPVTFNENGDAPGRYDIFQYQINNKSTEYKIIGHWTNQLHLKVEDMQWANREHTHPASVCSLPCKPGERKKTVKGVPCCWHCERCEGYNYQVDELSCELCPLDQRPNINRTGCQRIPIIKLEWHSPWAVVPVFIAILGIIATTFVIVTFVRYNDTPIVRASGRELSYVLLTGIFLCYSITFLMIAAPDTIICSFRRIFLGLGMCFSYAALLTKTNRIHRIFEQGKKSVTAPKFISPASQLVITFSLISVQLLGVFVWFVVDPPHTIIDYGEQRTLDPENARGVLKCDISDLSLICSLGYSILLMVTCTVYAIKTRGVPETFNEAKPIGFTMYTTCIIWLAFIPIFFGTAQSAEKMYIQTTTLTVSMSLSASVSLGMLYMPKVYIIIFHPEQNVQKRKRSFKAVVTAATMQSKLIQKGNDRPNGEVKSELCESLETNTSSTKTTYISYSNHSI
# Experiment: mGluR8 Gi/Go-coupled signaling modulation – cell-based, rat, thallium flux, HTS, primary screen (AID 488969)
# Conditions: HEK293 rat mGluR8, GIRK (G protein-gated inwardly rectifying potassium channel) thallium flux, FluoZin2; at 10 µM; stronger effect = higher value; submaximal glutamate (EC20) added with thallium
row,Structure (SMILES),z-score
1,O=C(NCC1CCCO1)C(c1cccs1)N(C(=O)c1ccc(CN2CCOCC2)o1)c1ccc(Cl)cc1 (stereo not given),-0.115
2,CN1c2ccccc2C(C)(C)[C@]12C=Cc1cc(O)ccc1O2,-0.11
3,CCc1ccc(C(C(=O)NC(C)(C)CC)N(Cc2ccco2)C(=O)Cn2nnc3ccccc32)cc1 (stereo not given),-0.412
4,Cc1ccc(C(=O)NCC(=O)Nc2ccccc2C(F)(F)F)cc1,-0.238
5,Cc1cc(NC(=O)CSc2nc3ccccc3n2CC(=O)N2CCC(C)CC2)no1,-0.223
6,COc1ccc(Cn2c3ccc(OC)cc3c3nc4ccccc4nc32)cc1,-0.12
7,O=c1c(-c2ccc(Oc3ccccc3)cc2)[n+]([O-])c2ccccc2n1OCc1ccccn1,-0.0632
8,Cc1ccc(NC(=O)c2cc(NC(=O)c3ccco3)ccc2N2CCOCC2)cc1Cl,-0.192
9,C=CCOC(=O)C1=C(C)Nc2nnnn2C1c1cccs1 (stereo not given),-1.38
10,COC(=O)c1ccc2c(c1)nc(C)n2CCO,-0.0312
11,CC(=O)c1ccc(NC2OC(C)C(O)C(O)C2O)cc1 (stereo not given),0.292
12,COC(=O)c1sccc1NC(=O)c1ccc(OC)c(OC)c1,-0.0665
13,CCOC(=O)Cc1cc(=O)n2[nH]c(C)c(-c3ccc(Cl)cc3)c2n1,0.263
14,CCOC(=O)C(NC(C)=O)(OCc1ccc(F)cc1)C(F)(F)F (stereo not given),0.158
15,CCc1c(C)nc(Nc2nc(C)c3cc(OC)ccc3n2)[nH]c1=O,-0.364
16,CC(=O)c1nn(-c2cccc(Br)c2)cc1C(=O)c1ccc(Br)cc1,0.113
17,COc1ccc(C(C(=O)NC(C)(C)C)N(C(=O)CNC(=O)c2cccs2)c2ccc(C)cc2)cc1OC (stereo not given),-0.0112
18,Cn1c(=O)c2c(nc(N3CCc4ccccc4C3)n2Cc2ccccc2F)n(C)c1=O,-0.552
19,COc1ccccc1CNC(=O)CSc1nc(N)c(C#N)c(-c2cccs2)c1C#N,-0.261
20,O=C(Nc1ccc(Cl)cc1Cl)c1n[nH]c(Cn2cncn2)n1,0.627
21,COc1ccc(-c2ccc(-c3nc4c(c(=O)[nH]c(=O)n4Cc4ccccc4)n3C)o2)c([N+](=O)[O-])c1,-0.405
22,COc1ccc(NC(=O)/C(C#N)=C/c2ccc(OCc3ccccc3F)cc2)cc1,-0.0251
23,O=C(Nc1cccc(C(F)(F)F)c1)c1ccc2nc(-c3ccco3)c(-c3ccco3)nc2c1,0.234
24,CCN(CC)c1ccc(/C=N/N2CCN(Cc3cccc4ccccc34)CC2)c(O)c1,-0.00408
25,CC(C)c1ccc(NC(=O)CSc2nnc(-c3ccccn3)n2C)cc1,0.204
26,CC(C)OCCCNC(=O)C1CCC(=O)N1C1CCCC1 (stereo not given),-0.382
27,CSc1ccc(S(=O)(=O)NCc2ccc(Cl)cc2Cl)cc1,-0.289

row,Structure (SMILES),z-score
1,CC1(C)CC(CCNC(=O)c2ccc(-n3cnnn3)cc2)CC(C)(C)N1,0.34
2,CC1=CC(C)(C)N(C(=O)c2ccccc2)c2ccc(C)cc21,-0.576
3,CCCC1(CCC)NC(=O)N(CC(=O)c2cc(C)n(-c3ccc4c(c3)OCO4)c2C)C1=O,-0.0921
4,CCS(=O)(=O)Nc1ccc(C(=O)CC2(O)C(=O)Nc3ccccc32)cc1 (stereo not given),-0.00986
5,Cc1cc(-n2c(C)cc(C(=O)CN3C(=O)NC4(CCCCC4C)C3=O)c2C)no1 (stereo not given),-1.1
6,CC(=O)NCc1ccc(S(=O)(=O)N/N=C/c2ccc(Br)cc2)cc1,-0.289
7,COCCOC(=O)C1=C(C)NC2=C(C(=O)CC(C)(C)C2)C1c1cc2c(cc1Br)OCO2 (stereo not given),-0.102
8,CC(=O)C1=C(c2ccccc2)NC(=O)NC1c1ccccc1OCC#N (stereo not given),1.96
9,O=C(CS(=O)c1cccc(Cl)c1)Nc1ccccc1Cl (stereo not given),0.0755
10,CCCCC(=O)NCc1ccc(Cl)cc1,-0.0907
11,COc1ccc(C(=O)N2CC3(C)CC2CC(C)(C)C3)cc1 (stereo not given),0.00843
12,CCCOc1c(Cl)cc(/C=N/O)cc1OCC,-0.48
13,Cc1nc2cc3ccccc3cc2c(=O)[nH]1,-0.408
14,Cc1ccc(-n2nc3cc(C)c(NC(=O)c4cccnc4)cc3n2)cc1,-0.169
15,COc1ccc2c(c1)c(=O)oc1cc(OCC(=O)NC3CCCCC3)ccc12,0.0339
16,CCCS(=O)(=O)C(=C(Nc1ccc(OC)cc1)Nc1ccc(OC)cc1)S(=O)(=O)CCC,-2.94
17,CCn1nc(C(=O)N2CCN(Cc3ccc4c(c3)OCO4)CC2)c2ccccc2c1=O,-0.474
18,COC(=O)c1ccc(NC(=O)CN(c2ccc(OC)cc2)S(C)(=O)=O)cc1,0.267
19,O=C(c1ccc2c(c1)OCO2)n1nnc2ccccc21,-0.248
20,CCc1nnc(NC(=O)CSc2nnc(-c3ccccc3O)n2CC)s1,-0.195
21,C=CCc1cc(OC)ccc1OCCON1C(=O)CCC1=O,0.46
22,O=C(Cc1ccccc1)NNC1CC(=O)N(c2ccc(Br)cc2)C1=O (stereo not given),-0.285
23,COc1cccc2c3c(c(=O)[nH]c12)CCC(C)(C)O3,-0.72
24,CC(C)c1ccc(-c2nc(N3CCOCC3)[nH]c(=O)c2C#N)cc1,-1.29
25,N/C(Cc1cccs1)=N\OC(=O)COc1ccc(Br)cc1,-1.16
26,O=C(CCCN1C(=O)/C(=C\c2ccco2)SC1=S)Nc1ccc2ccccc2c1,-0.0955
27,COc1ccc(-n2nnnc2SCC(=O)c2ccc(OC)c(OC)c2)cc1,-0.221

row,Structure (SMILES),z-score
1,O=C(O)CC(NC(=O)C(c1ccccc1)c1ccccc1)c1ccco1 (stereo not given),-0.325
2,COc1nc(N2CCOCC2)nc(C)c1[N+](=O)[O-],-0.535
3,COc1ccc(-c2nnn(CC(=O)N(Cc3ccco3)C(C(=O)NCC3CCCO3)c3ccco3)n2)cc1 (stereo not given),0.609
4,O=C(Cn1c(=O)n(Cc2ccco2)c(=O)c2ccccc21)NCC1CCCO1 (stereo not given),-0.425
5,COCCn1c(=N)c(C(=O)NCCc2ccccc2)cc2c(=O)n3cccc(C)c3nc21,0.228
6,COc1cccc(CN2C(=O)N(C(C)C)C(N(O)C(=O)NC(C)C)C2(C)C)c1OC (stereo not given),0.122
7,Cc1ccc(NP(=O)(c2ccc(N(C)C)cc2NC(=O)c2cccs2)N2CCOCC2)cc1 (stereo not given),0.911
8,CCCOC(=O)CC1C(=O)NCCN1Cc1ccccc1C (stereo not given),-0.484
9,O=C(Nc1nc(-c2ccncc2)cs1)C1COc2ccccc2O1 (stereo not given),-0.377
10,CCOC(=O)CSc1nnc(CNC(=O)c2ccccc2OC)n1-c1ccc(OC)cc1,-0.559
11,CCCC(NC(=O)c1ccccc1)c1nc2ccccc2n1Cc1ccc(C(=O)OC)o1 (stereo not given),0.0213
12,CCN1CCN(C(=O)CN(C)S(=O)(=O)c2ccc(OC)c(C)c2)CC1,0.273
13,COc1ccc(NC(C)=O)cc1NC(=O)CCn1c(=O)sc2ccccc21,0.00383
14,CNC(=S)N1N=C(c2ccccc2)CC1c1ccc(Br)cc1 (stereo not given),-0.103
15,CC(C)OC(=O)CC(=O)CSc1nc2c(cc1C#N)CCCCCC2,-0.0424
16,O=C(NCC1CCCO1)C1CCC(=O)N1Cc1ccccc1Cl (stereo not given),-0.388
17,O=C(COC(=O)/C=C/c1ccccc1[N+](=O)[O-])Nc1ccc(OCc2ccccc2)cc1,-0.237
18,Cc1onc(-c2c(Cl)cccc2Cl)c1C(=O)N1CCc2ccccc21,-0.434
19,COc1ccc(-c2cc3ccc(OCc4nn[nH]n4)cc3oc2=O)cc1OC,0.457
20,CCOC(=O)c1nc(C)n(-c2cc(Cl)ccc2Cl)n1,-0.12
21,CCCNS(=O)(=O)c1ccc(OCC(=O)NCCC2=CCCCC2)cc1,-0.106
22,O=C(CN1CCN(c2ccccn2)CC1)N1CCc2ccccc21,-0.219
23,O=S(=O)(NCCc1csc(-c2cccnc2)n1)c1ccc(Cl)s1,2.22
24,CCc1ccc(N(CC(=O)Nc2nc3ccc(C)cc3s2)S(=O)(=O)c2c(C)noc2C)cc1,-0.0777
25,O=C(CN1C(=O)C2C3C=CC(C3)C2C1=O)N1CC(=O)N(CCc2ccccc2)C(=O)C1 (stereo not given),0.00863
26,O=C(N/N=C/c1ccc[nH]1)c1ccc([N+](=O)[O-])cc1,-0.175
27,O=C1C=C(Nc2ccc(Cl)cc2)CC(c2ccc(Cl)cc2)C1 (stereo not given),-0.0986

row,Structure (SMILES),z-score
1,O=C(Nc1ccccc1C(=O)NCc1ccco1)c1ccco1,-0.945
2,CCCC(=O)Nc1ccc(Cl)c(NC(=S)NC(=O)c2ccco2)c1,0.122
3,Cc1cc(C)n(-c2ccc(C(=O)OCC(=O)N(CC(C)C)C3CCS(=O)(=O)C3)cc2)n1 (stereo not given),-0.486
4,Cc1ccc(/C=N/N2CCN(C3c4ccccc4-c4ccccc43)CC2)s1,-0.266
5,CCOc1ccc2nc(SCC(=O)c3ccc(Cl)s3)sc2c1,1.12
6,Cc1ccc(N(CC(=O)NN=C2CCN(C)CC2)S(=O)(=O)c2ccccc2)c(C)c1,-0.218
7,CCOC(=O)Cn1c(=N)n(CCOc2ccc(OC)cc2)c2ccccc21,2.74
8,Cn1c(=O)[nH]c(=O)c2c1nc(Br)n2CCSc1nnnn1-c1ccccc1,-0.161
9,Cn1c(=O)c2c(nc(Sc3ncccn3)n2Cc2ccc(Cl)cc2)n(C)c1=O,0.0166
10,COCCN1CC(O)=C(c2nc3ccccc3c(=O)[nH]2)C1=N,-0.0275
11,COCCCNS(=O)(=O)c1ccc(Oc2ncc(C(F)(F)F)cc2Cl)cc1,-0.289
12,Cc1cs/c(=N\N=C\c2cccc([N+](=O)[O-])c2)n1Cc1ccco1,active: 5.13
13,O=S(=O)(c1ccc2c(c1)OCCO2)N1CCC(c2nc3ccccc3s2)CC1,-0.296
14,CCOC(=O)c1[nH]c(C)c(C(=O)OC(C)C(=O)Nc2ncc(Cl)cc2Cl)c1C (stereo not given),-0.375
15,Cc1ccc(N(CC(=O)N2CCOCC2)S(=O)(=O)c2ccccc2)cc1,0.464
16,COc1cc(/C=N/n2cnnc2)ccc1OC(=O)c1cccnc1,-0.133
17,Cc1nc(SCc2ccccc2)c([N+](=O)[O-])[nH]1,0.317
18,COc1ccc(NC(=O)CSc2nc3ccccc3cc2Cc2ccccc2)cc1,-0.172
19,C=CCn1c(=O)c2c3c(sc2n2c(Nc4ccc(OC)cc4)nnc12)CCCC3,-1.06
20,CCCC(c1nnnn1Cc1ccccc1)N1CCN(c2ccccc2OC)CC1 (stereo not given),0.685
21,CC1=CCC(C(=O)N/N=C/c2cccs2)C(c2ccc(F)cc2)C1 (stereo not given),0.188
22,O=C(CC12CC3CC(CC(C3)C1)C2)NCC(=O)N1CCc2ccccc2C1,0.431
23,Cc1ccccc1C(=O)O/N=C(\c1ccccc1)c1ccccn1,-0.477
24,O=C(CN1CCC(n2nnc3cc(F)ccc32)CC1)Nc1ccccc1N1CCOCC1,-0.361
